{"source": "the supplement of paper PMC3334620", "note": "In all, about 33,000 sequences were measured (“E-score (-0.5 to 0.5)”: median about -0.016, highest 2% from about 0.31 on). Some of the results follow.", "data": [{"biological_target": "Cst6 (UniProt P40535)", "experiment": "PBM E-score (8-mer binding enrichment) (E-score (-0.5 to 0.5)); higher = stronger / more preferred TF binding; most listed sequences are background and not binding sites", "conditions": "protein concentration: 200 nM; construct: GST-DNA-binding domain", "procedure,_shortened": "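Detection of bound protein used fluorescent anti-GST, with scans normalised by masliner. The proteins were GST-tagged yeast transcription factors applied at about 100-200 nM to universal all-10-mer Agilent arrays made double-stranded by primer extension. Each ungapped eight-base word, pooled with its reverse complement, was scored with an E-score from the Universal PBM Analysis Suite.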", "values": [{"sequence": "CCTGTGTA", "PBM E-score": -0.0359}, {"sequence": "ATCTATCA", "PBM E-score": 0.128}, {"sequence": "ACACACGC", "PBM E-score": -0.0309}, {"sequence": "AACCGTGA", "PBM E-score": 0.203}, {"sequence": "ACCTCGCA", "PBM E-score": -0.0965}, {"sequence": "AACAGCAA", "PBM E-score": 0.0149}, {"sequence": "CGCCAAGC", "PBM E-score": -0.125}, {"sequence": "AGTACGCA", "PBM E-score": -0.237}, {"sequence": "AAGAGACG", "PBM E-score": -0.0946}, {"sequence": "ATGTACCG", "PBM E-score": 0.0238}, {"sequence": "AAGGAGTG", "PBM E-score": -0.137}, {"sequence": "ACCAATAT", "PBM E-score": 0.0913}, {"sequence": "CAGACTAA", "PBM E-score": 0.0205}, {"sequence": "CGGCTCTA", "PBM E-score": 0.127}, {"sequence": "CTCAGAAA", "PBM E-score": 0.226}, {"sequence": "CTTACCCC", "PBM E-score": -0.204}, {"sequence": "ACTTGTTG", "PBM E-score": -0.208}, {"sequence": "CGCCATAG", "PBM E-score": -0.025}, {"sequence": "ATAGCACC", "PBM E-score": -0.04}, {"sequence": "AGGTCTTA", "PBM E-score": -0.145}, {"sequence": "ATGTAAAG", "PBM E-score": 0.163}, {"sequence": "CAGCATAG", "PBM E-score": 0.0423}, {"sequence": "CAGAGTCG", "PBM E-score": -0.209}, {"sequence": "ACGCAATG", "PBM E-score": 0.24}, {"sequence": "CGGCCATA", "PBM E-score": -0.103}, {"sequence": "CACGGTGA", "PBM E-score": 0.139}, {"sequence": "CTCGGCGC", "PBM E-score": 0.192}, {"sequence": "GAGACCTC", "PBM E-score": -0.102}, {"sequence": "CAGGTCCA", "PBM E-score": -0.0856}, {"sequence": "CTTGCGCC", "PBM E-score": -0.0634}, {"sequence": "CACCACTG", "PBM E-score": -0.0455}, {"sequence": "ATCGACGA", "PBM E-score": 0.00463}, {"sequence": "CCGACTAC", "PBM E-score": -0.163}, {"sequence": "ACGAAGCG", "PBM E-score": -0.0135}, {"sequence": "CAAAGTGG", "PBM E-score": -0.196}, {"sequence": "AGTACGTA", "PBM E-score": 0.267}, {"sequence": "GGTAGACC", "PBM E-score": -0.267}, {"sequence": "GTGACCGA", "PBM E-score": -0.00972}, {"sequence": "GACCGACC", "PBM E-score": -0.17}, {"sequence": "AAGAGGCC", "PBM E-score": -0.151}, {"sequence": "AGCGCCCT", "PBM E-score": 0.113}, {"sequence": "GTTCGTGA", "PBM E-score": -0.143}, {"sequence": "CAACAGCA", "PBM E-score": 0.00053}, {"sequence": "CAAACGAG", "PBM E-score": 0.0101}, {"sequence": "ATATTGAA", "PBM E-score": 0.168}, {"sequence": "AATCATAG", "PBM E-score": 0.189}, {"sequence": "GACCGGAC", "PBM E-score": -0.317}, {"sequence": "CTCTAATC", "PBM E-score": -0.0876}, {"sequence": "CACGAGTC", "PBM E-score": -0.217}, {"sequence": "ACCTTCGC", "PBM E-score": -0.0947}, {"sequence": "CAGCGGAG", "PBM E-score": -0.197}, {"sequence": "ATTCTTTG", "PBM E-score": 0.132}, {"sequence": "ATTAAGGA", "PBM E-score": -0.0459}, {"sequence": "GCCATTCA", "PBM E-score": 0.0125}, {"sequence": "AGCTGCGA", "PBM E-score": -0.198}, {"sequence": "GCTGATGA", "PBM E-score": 0.278}, {"sequence": "CTAGTGAA", "PBM E-score": -0.0768}, {"sequence": "CCAGGGAC", "PBM E-score": -0.253}, {"sequence": "ATGTCTTC", "PBM E-score": -0.153}, {"sequence": "ACCCAAAC", "PBM E-score": 0.0543}, {"sequence": "ATCCCCAC", "PBM E-score": -0.179}, {"sequence": "AAAGGTGG", "PBM E-score": 0.0223}, {"sequence": "ACGGCCTA", "PBM E-score": -0.112}, {"sequence": "AGATGGCA", "PBM E-score": 0.0659}, {"sequence": "ACCTGAGC", "PBM E-score": -0.0036}, {"sequence": "ACGATTAA", "PBM E-score": 0.12}, {"sequence": "ACTCAGAT", "PBM E-score": 0.116}, {"sequence": "TCCGCGCA", "PBM E-score": 0.123}, {"sequence": "AACTATCA", "PBM E-score": 0.203}, {"sequence": "CTGCGCGC", "PBM E-score": 0.1}, {"sequence": "GTATTACA", "PBM E-score": 0.209}, {"sequence": "CGGTGCCA", "PBM E-score": -0.204}, {"sequence": "AAAGCCCG", "PBM E-score": -0.283}, {"sequence": "AACATTCG", "PBM E-score": -0.116}, {"sequence": "AATTACCG", "PBM E-score": 0.196}, {"sequence": "GTTCAGAA", "PBM E-score": 0.0446}, {"sequence": "AACAAGAA", "PBM E-score": 0.237}, {"sequence": "AGTGGATG", "PBM E-score": 0.0228}, {"sequence": "ACAGACCC", "PBM E-score": -0.168}, {"sequence": "TACCTGAA", "PBM E-score": 0.0646}, {"sequence": "AACGGGTC", "PBM E-score": -0.251}, {"sequence": "AGCAAGAT", "PBM E-score": 0.0303}, {"sequence": "GTTTTGTA", "PBM E-score": 0.29}, {"sequence": "GACGCGAC", "PBM E-score": 0.085}, {"sequence": "CTCCCTTC", "PBM E-score": -0.304}, {"sequence": "CTCTTGAC", "PBM E-score": -0.0368}, {"sequence": "ACGAGAGG", "PBM E-score": -0.0665}, {"sequence": "TACTTCTA", "PBM E-score": 0.0813}, {"sequence": "AATACAGA", "PBM E-score": 0.127}, {"sequence": "CGTACATA", "PBM E-score": 0.212}, {"sequence": "ACCCGACT", "PBM E-score": -0.16}, {"sequence": "GCGAATCC", "PBM E-score": -0.229}, {"sequence": "AAGCCGAG", "PBM E-score": -0.0986}, {"sequence": "AGCGGTCA", "PBM E-score": -0.0932}, {"sequence": "TCTATTCA", "PBM E-score": 0.201}, {"sequence": "GGCTGACA", "PBM E-score": 0.0337}, {"sequence": "CATTCGGC", "PBM E-score": -0.0466}, {"sequence": "CCGCCACC", "PBM E-score": -0.17}, {"sequence": "ACTCTGCG", "PBM E-score": -0.0141}, {"sequence": "ATAGCGCG", "PBM E-score": -0.0704}, {"sequence": "ACACTCTG", "PBM E-score": -0.0657}, {"sequence": "TAGCCCAA", "PBM E-score": 0.0416}, {"sequence": "CAACAAAC", "PBM E-score": 0.078}, {"sequence": "GTGCACAC", "PBM E-score": 0.0143}, {"sequence": "CTAATCCA", "PBM E-score": -0.0445}, {"sequence": "GAACTATC", "PBM E-score": -0.114}, {"sequence": "CAGAACCG", "PBM E-score": -0.0704}, {"sequence": "ATTGCCAG", "PBM E-score": -0.0529}, {"sequence": "AATACCAC", "PBM E-score": 0.0407}, {"sequence": "ACTGTCCT", "PBM E-score": -0.0455}, {"sequence": "AATTTCGG", "PBM E-score": 0.127}, {"sequence": "AAATTTTG", "PBM E-score": 0.135}, {"sequence": "AGCACTGC", "PBM E-score": -0.162}, {"sequence": "AAGTCAGC", "PBM E-score": 0.11}, {"sequence": "ATTTGGCG", "PBM E-score": 0.0158}, {"sequence": "AGACTCGA", "PBM E-score": -0.0935}, {"sequence": "GGTACCAC", "PBM E-score": -0.172}, {"sequence": "GCATAAGA", "PBM E-score": 0.0584}, {"sequence": "CTCTGGAC", "PBM E-score": -0.0655}, {"sequence": "CTCGGCTA", "PBM E-score": -0.0824}, {"sequence": "ATAGTACC", "PBM E-score": 0.00258}, {"sequence": "CTGGTACC", "PBM E-score": -0.31}, {"sequence": "TTCGCCAA", "PBM E-score": -0.0795}, {"sequence": "ACAGTGAC", "PBM E-score": 0.297}, {"sequence": "CATCGGCG", "PBM E-score": -0.104}, {"sequence": "CGTCAATA", "PBM E-score": 0.349}, {"sequence": "ATGCGGAC", "PBM E-score": 0.063}, {"sequence": "GCTTCTCC", "PBM E-score": -0.254}, {"sequence": "ATGGATCA", "PBM E-score": -0.00419}, {"sequence": "AAGCCTGG", "PBM E-score": -0.19}, {"sequence": "CCTGTGGC", "PBM E-score": -0.117}, {"sequence": "CAAATCCC", "PBM E-score": -0.233}, {"sequence": "CTGTCCGA", "PBM E-score": -0.076}, {"sequence": "CACAAGAC", "PBM E-score": -0.15}, {"sequence": "AACAGGCT", "PBM E-score": -0.13}, {"sequence": "CATATCCA", "PBM E-score": -0.178}, {"sequence": "AAGAGTAT", "PBM E-score": -0.0687}, {"sequence": "AGCACAGC", "PBM E-score": -0.0351}, {"sequence": "AGGCCGAC", "PBM E-score": -0.347}, {"sequence": "TTGGCCAA", "PBM E-score": -0.275}, {"sequence": "TAACTCTA", "PBM E-score": -0.0988}, {"sequence": "GCGCTAGA", "PBM E-score": -0.0469}, {"sequence": "CAGAACAC", "PBM E-score": -0.137}, {"sequence": "TGGCTTAA", "PBM E-score": 0.091}, {"sequence": "AAGGTTCA", "PBM E-score": -0.0958}, {"sequence": "TCGCTAGA", "PBM E-score": -0.0754}, {"sequence": "GACTTCGC", "PBM E-score": 0.0419}, {"sequence": "CTGTTTGA", "PBM E-score": 0.0716}, {"sequence": "CGCTGTTC", "PBM E-score": -0.0387}, {"sequence": "AATGTAGG", "PBM E-score": -0.174}, {"sequence": "CCCTAGAC", "PBM E-score": -0.277}, {"sequence": "AGTCCCTG", "PBM E-score": -0.223}, {"sequence": "AGCTGTGG", "PBM E-score": -0.273}, {"sequence": "ACCGAACG", "PBM E-score": 0.129}, {"sequence": "GCGCGAAA", "PBM E-score": 0.212}, {"sequence": "GTAAAAAC", "PBM E-score": 0.167}, {"sequence": "GCTCCCTA", "PBM E-score": -0.2}, {"sequence": "CCTAAACG", "PBM E-score": 0.00558}, {"sequence": "GCTCGGAA", "PBM E-score": -0.173}, {"sequence": "AGTTTTAA", "PBM E-score": 0.194}, {"sequence": "AGGCTACG", "PBM E-score": -0.132}, {"sequence": "CGTTCGTA", "PBM E-score": 0.164}, {"sequence": "ACGTACCG", "PBM E-score": 0.0475}, {"sequence": "GAATGATC", "PBM E-score": 0.142}, {"sequence": "AGGTACCT", "PBM E-score": -0.2}, {"sequence": "CCTGAATC", "PBM E-score": -0.017}, {"sequence": "TATGGAGA", "PBM E-score": -0.0644}, {"sequence": "GCTAAGAA", "PBM E-score": -0.0426}, {"sequence": "ACCATACA", "PBM E-score": -0.0921}, {"sequence": "CGTAAGAG", "PBM E-score": 0.185}, {"sequence": "GTTGTTAA", "PBM E-score": 0.283}, {"sequence": "CTTAGCAC", "PBM E-score": -0.0219}]}]}
